Measurements as given in patent publication US20250243260A1 (ALPINE IMMUNE SCIENCES, published 2025).

Biological target: CD28 on Jurkat/IL2-reporter cells (UniProt P10747 19-220, limits assumed)
Assay: cell-based or functional assay

Row | Binder | Fold Increase over WT at 50 nM [fold] | Rel. Luminescence Units (RLU) 2 nM [RLU] | Rel. Luminescence Units (RLU) 10 nM [RLU] | Rel. Luminescence Units (RLU) 50 nM [RLU] | Rel. Luminescence Units (RLU) 250 nM [RLU]
1 | CD80_182 variant CD80 IgV-Fc (E10G, V11W, E35G, M47L, A71G, Y87R) (Fc fusion) VIHVTKEVKGWATLSCGHNVSVEELAQTRIYWQKGKKMVLTMMSGDLNIWPEYKNRTIFDITNNLSIVILGLRPSDEGTYECVVLKREKDAFKREHLAEVTLSVKADGSGGGGS[omitted - human IgG4 Fc with S228P (EU numbers)] | 2.04 | 2390 | 2720 | 4990 | 8260
2 | CD80_183 variant CD80 IgV-Fc (V11Y, T28Y, M47L, A71G, Y87R) (Fc fusion) VIHVTKEVKEYATLSCGHNVSVEELAQYRIYWQKEKKMVLTMMSGDLNIWPEYKNRTIFDITNNLSIVILGLRPSDEGTYECVVLKREKDAFKREHLAEVTLSVKADGSGGGGS[omitted - human IgG4 Fc with S228P (EU numbers)] | 3.54 | 2850 | 5020 | 8650 | 10900
3 | CD80_194 variant CD80 IgV-Fc (V11Y, M42W, T62A) (Fc fusion) VIHVTKEVKEYATLSCGHNVSVEELAQTRIYWQKEKKMVLTWMSGDMNIWPEYKNRTIFDIANNLSIVILALRPSDEGTYECVVLKYEKDAFKREHLAEVTLSVKADGSGGGGS[omitted - human IgG4 Fc with S228P (EU numbers)] | 1.07 | 2180 | 2130 | 2620 | 3320
4 | CD80_189 variant CD80 IgV-Fc (E10G, V11W, M47V, L85E) (Fc fusion) VIHVTKEVKGWATLSCGHNVSVEELAQTRIYWQKEKKMVLTMMSGDVNIWPEYKNRTIFDITNNLSIVILALRPSDEGTYECVVEKYEKDAFKREHLAEVTLSVKADGSGGGGS[omitted - human IgG4 Fc with S228P (EU numbers)] | 1.33 | 2760 | 2880 | 3250 | 3100
5 | CD80_185 variant CD80 IgV-Fc (V11Y, T28Y, M47L) (Fc fusion) VIHVTKEVKEYATLSCGHNVSVEELAQYRIYWQKEKKMVLTMMSGDLNIWPEYKNRTIFDITNNLSIVILALRPSDEGTYECVVLKYEKDAFKREHLAEVTLSVKADGSGGGGS[omitted - human IgG4 Fc with S228P (EU numbers)] | 2.71 | 2770 | 3810 | 6610 | 8890
6 | CD80_191 variant CD80 IgV-Fc (V11Y, T28Y, M47L, V68L, L85E) (Fc fusion) VIHVTKEVKEYATLSCGHNVSVEELAQYRIYWQKEKKMVLTMMSGDLNIWPEYKNRTIFDITNNLSILILALRPSDEGTYECVVEKYEKDAFKREHLAEVTLSVKADGSGGGGS[omitted - human IgG4 Fc with S228P (EU numbers)] | 0.99 | 2560 | 2540 | 2410 | 2650
7 | CD80_187 variant CD80 IgV-Fc (V11Y, H18Y, E35G, L85Q) (Fc fusion) VIHVTKEVKEYATLSCGYNVSVEELAQTRIYWQKGKKMVLTMMSGDMNIWPEYKNRTIFDITNNLSIVILALRPSDEGTYECVVQKYEKDAFKREHLAEVTLSVKADGSGGGGS[omitted - human IgG4 Fc with S228P (EU numbers)] | 1.57 | 2760 | 2720 | 3830 | 5460
8 | CD80_186 variant CD80 IgV-Fc (E7K, V11W, N63H, A71G, Y87K) (Fc fusion) VIHVTKKVKEWATLSCGHNVSVEELAQTRIYWQKEKKMVLTMMSGDMNIWPEYKNRTIFDITHNLSIVILGLRPSDEGTYECVVLKKEKDAFKREHLAEVTLSVKADGSGGGGS[omitted - human IgG4 Fc with S228P (EU numbers)] | 1.02 | 2820 | 2280 | 2500 | 3270
9 | CD80_193 variant CD80 IgV-Fc (V11Y, M42W, T62A, L85E) (Fc fusion) VIHVTKEVKEYATLSCGHNVSVEELAQTRIYWQKEKKMVLTWMSGDMNIWPEYKNRTIFDIANNLSIVILALRPSDEGTYECVVEKYEKDAFKREHLAEVTLSVKADGSGGGGS[omitted - human IgG4 Fc with S228P (EU numbers)] | 0.94 | 2220 | 2420 | 2300 | 2490
10 | CD80_190 variant CD80 IgV-Fc (T28Y, M47L) (Fc fusion) VIHVTKEVKEVATLSCGHNVSVEELAQYRIYWQKEKKMVLTMMSGDLNIWPEYKNRTIFDITNNLSIVILALRPSDEGTYECVVLKYEKDAFKREHLAEVTLSVKADGSGGGGS[omitted - human IgG4 Fc with S228P (EU numbers)] | 1.17 | 2500 | 2570 | 2850 | 3320
11 | CD80_188 variant CD80 IgV-Fc (E35D, V68L, L85E) (Fc fusion) VIHVTKEVKEVATLSCGHNVSVEELAQTRIYWQKDKKMVLTMMSGDMNIWPEYKNRTIFDITNNLSILILALRPSDEGTYECVVEKYEKDAFKREHLAEVTLSVKADGSGGGGS[omitted - human IgG4 Fc with S228P (EU numbers)] | 1.29 | 3160 | 2890 | 3150 | 4550
12 | CD80_192 variant CD80 IgV-Fc (E7N, E35D, T101R) (Fc fusion) VIHVTKNVKEVATLSCGHNVSVEELAQTRIYWQKDKKMVLTMMSGDMNIWPEYKNRTIFDITNNLSIVILALRPSDEGTYECVVLKYEKDAFKREHLAEVRLSVKADGSGGGGS[omitted - human IgG4 Fc with S228P (EU numbers)] | 1.07 | 2430 | 2410 | 2610 | 2800
13 | CD80_184 variant CD80 IgV-Fc (V11Y, A26Q, M47L, A71G, Y87R) (Fc fusion) VIHVTKEVKEYATLSCGHNVSVEELQQTRIYWQKEKKMVLTMMSGDLNIWPEYKNRTIFDITNNLSIVILGLRPSDEGTYECVVLKREKDAFKREHLAEVTLSVKADGSGGGGS[omitted - human IgG4 Fc with S228P (EU numbers)] | 3.87 | 2970 | 5870 | 9440 | 11200

Second part, the binder after the results:

Row | Fold Increase over WT at 50 nM [fold] | Rel. Luminescence Units (RLU) 2 nM [RLU] | Rel. Luminescence Units (RLU) 10 nM [RLU] | Rel. Luminescence Units (RLU) 50 nM [RLU] | Rel. Luminescence Units (RLU) 250 nM [RLU] | Binder
14 | 1.39 | 2460 | 2440 | 3400 | 5420 | CD80_198 variant CD80 IgV-Fc (H18Y, A26E, R29S, E35D, M47L, V68M, A71G, E77G, D90G) (Fc fusion) not shown
15 | 1.46 | 3380 | 3070 | 3570 | 4680 | CD80_202 variant CD80 IgV-Fc (E7H, H18L, V20I, T28Y, D46S, A71G) (Fc fusion) VIHVTKHVKEVATLSCGLNISVEELAQYRIYWQKEKKMVLTMMSGSMNIWPEYKNRTIFDITNNLSIVILGLRPSDEGTYECVVLKYEKDAFKREHLAEVTLSVKADGSGGGGS[omitted - human IgG4 Fc with S228P (EU numbers)]
16 | 2.58 | 3310 | 4560 | 6300 | 9620 | CD80_200 variant CD80 IgV-Fc (K9N, E10R, H18V, T28Y, A71G) (Fc fusion) VIHVTKEVNRVATLSCGVNVSVEELAQYRIYWQKEKKMVLTMMSGDMNIWPEYKNRTIFDITNNLSIVILGLRPSDEGTYECVVLKYEKDAFKREHLAEVTLSVKADGSGGGGS[omitted - human IgG4 Fc with S228P (EU numbers)]
17 | 0.93 | 2290 | 2280 | 2270 | 2480 | CD80_196 variant CD80 IgV-Fc (V11Y, M42W, E52K, T62A, L85E) (Fc fusion) VIHVTKEVKEYATLSCGHNVSVEELAQTRIYWQKEKKMVLTWMSGDMNIWPKYKNRTIFDIANNLSIVILALRPSDEGTYECVVEKYEKDAFKREHLAEVTLSVKADGSGGGGS[omitted - human IgG4 Fc with S228P (EU numbers)]
18 | 2.81 | 3540 | 4200 | 6860 | 10400 | CD80_201 variant CD80 IgV-Fc (E10G, H18Y, T28Y, M47W, T62S) (Fc fusion) VIHVTKEVKGVATLSCGYNVSVEELAQYRIYWQKEKKMVLTMMSGDWNIWPEYKNRTIFDISNNLSIVILALRPSDEGTYECVVLKYEKDAFKREHLAEVTLSVKADGSGGGGS[omitted - human IgG4 Fc with S228P (EU numbers)]
19 | 2.28 | 2320 | 2770 | 5570 | 10300 | CD80_197 variant CD80 IgV-Fc (V11Y, E35D, Y87Q, T101R) (Fc fusion) VIHVTKEVKEYATLSCGHNVSVEELAQTRIYWQKDKKMVLTMMSGDMNIWPEYKNRTIFDITNNLSIVILALRPSDEGTYECVVLKQEKDAFKREHLAEVRLSVKADGSGGGGS[omitted - human IgG4 Fc with S228P (EU numbers)]
20 | 1.4 | 2480 | 2620 | 3420 | 6050 | CD80_199 variant CD80 IgV-Fc (E10G, H18Y) (Fc fusion) VIHVTKEVKGVATLSCGYNVSVEELAQTRIYWQKEKKMVLTMMSGDMNIWPEYKNRTIFDITNNLSIVILALRPSDEGTYECVVLKYEKDAFKREHLAEVTLSVKADGSGGGGS[omitted - human IgG4 Fc with S228P (EU numbers)]
